“And” between values parts separate entries of the source, which are not always exact repeats. Identical values can stand only once. In all, about 390,000 compounds went through this assay and about 930 (0.24%) were called active. The shares of active, inactive and inconclusive entries below differ from those in the screen. The call rests on the fitted dose curve; in most records, active means well fitted activation curve with a large enough effect; inconclusive means small, poorly fitted or top-dose-only effect; inactive means no such curve, though single readings can be large or run the other way. A potency beside an inconclusive call is a rough fit, not a confirmed value.
Experiment: qHTS for Suppressors of FUS Proteinopathy: Primary screen using FUS-linked yeast assay; further: nearly all actives have a fitted effect of over 55% in size;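 on growth rescue (activation): plate controls were DMSO vehicle for no effect and reference control for full effect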
Details: S. cerevisiae FUS-expressing, OD600, 24 h; Potency: growth rescue; growth rescue (activation): at 76.6 µM (top of the series)
Procedure, shortened: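 Yeast FUS proteinopathy model; galactose-induced FUS (2%), starting OD 0.005. Cpds in dilution series, 24hr, 30C, 99% humidity. Abs 600 nm growth. Pos ctrl CP55940 (top 92uM final); neg ctrl DMSO.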
Potency means the concentration at half of the fitted maximal effect; tags describe the fitted curve by direction and shape.

Row | Compound | growth rescue (activation) | Potency
1 | CCOC(=O)c1c(S(=O)(=O)N2CCCC(C(=O)N3CCN(c4ccccc4)CC3)C2)c(C)n(C)c1C (configuration not stated) | inactive: 31.6% | –
2 | CCN(C[C@H]1N[C@@](CC)(C(=O)OC)[C@H]2C(=O)N(C)C(=O)[C@@H]12)S(=O)(=O)c1ccc(-c2ccccc2)cc1 | – | inconclusive: 20 µM [activator, partial curve, poor fit]
3 | COc1ccc(CCNc2ccncn2)cc1 | – | inconclusive: 11.2 µM [activator, single point]
4 | Cc1ccc(C)c(Cn2nc(-c3cc(C)ccc3C)ccc2=O)c1 | – | inconclusive: 10 µM [activator, partial curve, poor fit] and inconclusive: 31.6 µM [activator, partial curve, poor fit]
5 | O=[N+]([O-])c1ccc(C(c2sc3nc(-c4ccco4)nn3c2O)N2CCN(c3cccc(Cl)c3)CC2)cc1 (configuration not stated) | – | inconclusive: 28.2 µM [activator, single point]
6 | CCOc1ccc(CCNC(=O)COC(=O)c2ccc(S(=O)(=O)N3CCCC3)cc2)cc1OCC | – | inconclusive: 39.8 µM [activator, single point]
7 | CC(C)C[C@@H](CNCC(=O)[C@H](CC(C)C)NC(=O)c1[nH]cnc1C(=O)N[C@H](CN)CC(C)C)NC(=O)c1nc[nH]c1C(=O)N[C@@H](CC(=O)O)C(=O)O | – | inconclusive: 28.2 µM [activator, single point]
8 | O=C(Nc1ccc2c(c1)OCCO2)C(c1ccnc2ccccc12)N1CCN(c2ccc(F)cc2)CC1 (configuration not stated) | – | inconclusive: 28.2 µM [activator, single point]
9 | COc1ccc(-n2c(SCC(=O)NCC3CCCO3)nc3c(c2=O)SCC3)cc1 (configuration not stated) | – | inconclusive: 25.1 µM [activator, partial curve, poor fit]
10 | COc1ccc(OC)c(NC(=O)O[C@@H]2CC[C@@]34CCCN3C(=O)CCC[C@H]4C2)c1 | inactive: 9.87% | –
11 | CCN(Cc1ccccc1)C(=O)CN1C(=O)COc2ccc(S(=O)(=O)NC3CCCC3)cc21 | – | inconclusive: 25.1 µM [activator, partial curve]
12 | O=C(c1ccc2c(c1)OCO2)N1CCC2(CC1)Oc1ccc(F)cc1C(=O)C21CC(c2cccnc2)=NO1 (configuration not stated) | – | inconclusive: 35.5 µM [activator, single point]
13 | COC(=O)C1=C(C)NC(=O)NC1c1cc(Cl)ccc1OC (configuration not stated) | inconclusive: 71.4% [activator] | –
14 | CC(=O)Nc1ccc(NC(=O)CSc2nc3ccccc3nc2N2CCCCC2)cc1 | – | inactive
15 | O=C(CN1C(=O)COc2ccc(S(=O)(=O)NC3CCCC3)cc21)Nc1ccc(Cl)cc1 | inactive: -12.3% | –
16 | COC(=O)[C@]12C[C@H](CC(=O)NCCc3ccccc3OC)C(=O)N(Cc3ccc(Cl)cc3Cl)C1=C[C@H](C1CCCC1)O[C@@H]2C | – | inconclusive: 7.94 µM [activator, partial curve]
17 | CC1Oc2ccccc2N(CC(=O)NC2CCCCC2)C1=O (configuration not stated) | inactive: -6.6% | –
18 | Cc1ccc(NP(=O)(c2ccc(N(C)C)cc2NC(=O)c2cccs2)N2CCOCC2)cc1Cl (configuration not stated) | – | active: 3.98 µM
19 | CCCOc1ccc(C(=O)Nc2ccc(NC(=O)c3ccccc3)c(Br)c2)cc1 | inactive: -1.19% | –

Row | Compound | growth rescue (activation) | Potency
20 | Cc1nnc(NC(=O)c2nc(SCc3ccccc3F)ncc2Cl)s1 | – | inconclusive: 39.8 µM [activator, single point]
21 | CCN1C(=O)/C(=C/c2nc3ccccc3c(=O)n2-c2ccccc2)c2ccccc21 | – | inconclusive: 15.8 µM [activator, partial curve, poor fit]
22 | Cc1cccc(OCCC(=O)Nc2ccc(S(=O)(=O)N3CCCC3)cc2)c1 | – | inconclusive: 25.1 µM [activator, single point]
23 | CC1CCN(S(=O)(=O)c2ccc(C(=O)Nc3nnc(-c4ccncc4)o3)cc2)CC1 | – | inconclusive: 31.6 µM [activator, partial curve, poor fit]
24 | COCCCNC(=O)C[C@H]1C[C@H](C(=O)N(C(C)C)C(C)C)[C@@]2(C)c3[nH]c4cc(-c5ccco5)ccc4c3CCN2C1=O | – | inconclusive: 50.1 µM [activator, single point]
25 | CC(C)c1nn2c(=O)cc(COC(=O)c3ccccc3NC(=O)COc3ccccc3)nc2s1 | inactive: 8.1% | –
26 | CC1CN(S(=O)(=O)c2ccc(NC(=O)c3cc(-c4ccccc4O)n[nH]3)cc2)CC(C)O1 (configuration not stated) | inconclusive: 74% [activator] | –
27 | Cc1cc(N/N=C/c2ccccc2O)nc(N2CCOCC2)n1 | – | inconclusive: 50.1 µM [activator, single point]
28 | COCCN1C2=C(C(=O)CC(C)(C)C2)C(c2ccc(OC)c(OC)c2)C2=C1CC(C)(C)CC2=O | inactive: 14% | –
29 | CCN(CC(=O)Nc1ccccc1OC)C(=O)c1ccc2[nH]c3c(c2c1)CC(C)CC3 (configuration not stated) | – | inconclusive: 20 µM [activator, partial curve, poor fit]
30 | O=C(CSc1nc(-c2cccc(F)c2)[nH]c1-c1ccccc1)Nc1ccc2c(c1)OCCO2 | – | inconclusive: 35.5 µM [activator, single point]
31 | Cc1cccc(OCc2ccc(-c3nc(C#N)c(NCc4cccnc4)o3)o2)c1 | – | inconclusive: 50.1 µM [activator, single point]
32 | Cn1c(SCC(=O)Nc2ccc(N3CCOCC3)cc2)nnc1-c1ccccc1 | – | inconclusive: 39.8 µM [activator, partial curve, poor fit]
33 | COc1ccccc1N1CCN(C(c2ccc(Cl)cc2)c2nnnn2C(C)(C)C)CC1 (configuration not stated) | – | inconclusive: 50.1 µM [activator, single point]
34 | CC1Cc2ccccc2N1C(=O)CSc1nnc(-c2ccccc2)c(-c2ccccc2)n1 (configuration not stated) | – | inconclusive: 8.91 µM [activator, full curve]
35 | CC(C)CN(CC(C)C)S(=O)(=O)c1ccc(C(=O)Nc2sc3c(c2C(N)=O)CC(C)(C)NC3(C)C)cc1 | – | inconclusive: 44.7 µM [activator, single point]
36 | CCc1ccc(NC(=O)CCCc2nnc3n(CC(C)C)c(=O)c4sccc4n23)cc1 | inactive: 6.04% | –
37 | CN1CCN(CCC(=O)Nc2ccc3c(c2)OCO3)CC1 | inactive: -12.9% | –
